# Experimental data taken from publication PMC4336329 (PLoS ONE, 2015).
# Screen size: about 310,000 compounds; about 2,200 (0.71%) showed an effect of 50% or more. Effects have a minus sign here. The list shows a part of the results.
# Target: human ether-à-go-go-related gene (hERG) potassium channel (human, UniProt Q12809)
# Assay: primary screen, population patch clamp on CHO cells stably expressing hERG
# Sequence of human ether-à-go-go-related gene (hERG) potassium channel (Q12809 whole entry, looked up): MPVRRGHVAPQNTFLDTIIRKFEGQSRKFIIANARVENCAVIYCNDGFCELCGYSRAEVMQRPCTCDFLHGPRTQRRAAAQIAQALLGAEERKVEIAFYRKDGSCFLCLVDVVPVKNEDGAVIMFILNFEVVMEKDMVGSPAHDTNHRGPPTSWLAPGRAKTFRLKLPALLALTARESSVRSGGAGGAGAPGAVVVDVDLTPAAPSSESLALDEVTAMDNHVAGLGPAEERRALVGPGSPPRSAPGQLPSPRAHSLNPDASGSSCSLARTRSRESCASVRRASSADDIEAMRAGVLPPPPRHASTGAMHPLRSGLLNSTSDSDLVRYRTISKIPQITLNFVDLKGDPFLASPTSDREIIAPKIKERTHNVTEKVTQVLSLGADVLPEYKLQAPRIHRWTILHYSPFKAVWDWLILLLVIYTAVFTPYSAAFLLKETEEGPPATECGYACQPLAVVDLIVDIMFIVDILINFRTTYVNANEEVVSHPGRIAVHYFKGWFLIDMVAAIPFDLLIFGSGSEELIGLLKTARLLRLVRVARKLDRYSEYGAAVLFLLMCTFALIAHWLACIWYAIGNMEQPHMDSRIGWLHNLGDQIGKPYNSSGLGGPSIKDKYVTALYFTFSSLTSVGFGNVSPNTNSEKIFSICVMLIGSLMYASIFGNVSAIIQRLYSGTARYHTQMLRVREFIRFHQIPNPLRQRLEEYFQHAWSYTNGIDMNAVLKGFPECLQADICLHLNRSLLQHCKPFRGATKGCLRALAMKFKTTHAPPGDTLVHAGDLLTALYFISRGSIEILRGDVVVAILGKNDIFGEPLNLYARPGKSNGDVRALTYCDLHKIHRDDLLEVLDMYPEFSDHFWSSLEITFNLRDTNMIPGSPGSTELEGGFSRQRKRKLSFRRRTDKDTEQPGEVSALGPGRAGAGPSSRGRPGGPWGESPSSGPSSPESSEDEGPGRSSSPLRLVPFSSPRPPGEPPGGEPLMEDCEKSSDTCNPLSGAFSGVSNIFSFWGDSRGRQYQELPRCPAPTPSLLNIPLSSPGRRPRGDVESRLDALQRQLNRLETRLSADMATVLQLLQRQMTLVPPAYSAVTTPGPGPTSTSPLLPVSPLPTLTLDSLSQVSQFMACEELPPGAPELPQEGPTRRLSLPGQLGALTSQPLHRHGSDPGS
row,SMILES,"hERG current change (%, negative = inhibition) at 1uM [%]"
1,CCOC(=O)NC(=O)CSc1ccc(S(=O)(=O)N(C)C2CCCCC2)cn1,-4.11
2,Cl.OCCN1CCN(CC/C=C2/c3ccccc3Sc3ccc(C(F)(F)F)cc32)CC1,7.66
3,CN1CCN(C(=O)C2CCN(S(=O)(=O)c3ccc4c(c3)oc(=O)n4C)CC2)CC1,4.06
4,COc1cccc(N2C(=O)NC(=O)/C(=C\c3cn(C)c4ccccc34)C2=O)c1,10.4
5,COCC1CCN(Cc2nc(-c3ccc4c(c3)OCO4)no2)C1 (stereo not shown),-0.044
6,CC(=O)NC1=NN(C(C)=O)C(C)(c2ccc(Cl)s2)S1 (stereo not shown),-4.71
7,Cl.OCCNc1nc(Nc2ccc(Cl)c(Cl)c2)nc2ccccc12,14.3
8,COc1ccc(CCN2C(=O)C3CC=C(C)CC3C2=O)cc1OC (stereo not shown),-9.5
9,COc1ccc(N2CCN(C(=O)c3cccc(Cn4cc(Cl)cn4)c3)CC2)cc1,-6.31
10,CC12CCC(C(=O)NCc3ccccc3)(OC1=O)C2(C)C (stereo not shown),1.27
11,COc1cc(NS(=O)(=O)c2ccc(N)cc2)ncn1,21.1
12,CCOc1ccc2oc(C(=O)N(CC)CC(=O)Nc3c(F)cccc3F)c(C)c2c1,2.73
13,COCCN1C(=O)/C(=C/c2cc3c(cc2Br)OCO3)NC1=S,11.9
14,CS(=O)(=O)N1CCC(C(=O)Nc2ccc(F)c(Cl)c2)CC1,18.9
15,CC1CC(C)(C)NC(=S)N1CCC(=O)N1CCc2ccccc21 (stereo not shown),8.92
16,O=C(N/N=C/c1ccc(F)cc1)c1c(O)c2ccccc2[nH]c1=O,-5.47
17,CCNc1nc(NCC)nc(N(C#N)C(C)C)n1,7.81
18,Cc1ccc(C(=O)OCc2cc(=O)n3c(C)csc3n2)s1,3.84
19,COCCCN1C(=O)C2C(C(=O)Nc3cccc(Cl)c3)C3C=CC2(O3)C1C(=O)NC1CCCCC1 (stereo not shown),5.41
20,O=C(COC(=O)c1cn(-c2ccccc2)nc1-c1cccs1)NC1CC1,9.77
21,Cc1c(O)c(C)c2c(c1O)C(=O)C[C@@H](c1ccccc1)O2,11.1
22,Cc1cccc2cc(C#N)c(NCCCNS(=O)(=O)c3ccc(Cl)cc3)nc12,19.1

row,SMILES,"hERG current change (%, negative = inhibition) at 1uM [%]"
1,CN(CC(=O)N(C)CC(=O)Nc1c(Cl)cccc1Cl)Cc1ccc(Br)s1,-11.8
2,CCCc1nc(SCC(=O)Nc2nnc(CC)s2)c2c(=O)n(C)c(=O)n(C)c2n1,10.7
3,CC(=O)c1cn(CCCCCCCn2cc(C(C)=O)c(=O)[nH]c2=O)c(=O)[nH]c1=O,1.48
4,Cc1cccc(-n2ncc3c(N)ncnc32)c1,1.41
5,COc1ccc(NC(=O)C(c2ccccc2)c2ccccc2)cn1,3.9
6,CCn1c(SCC(=O)Nc2cc(C)c(Cl)cc2OC)nnc1-c1ccco1,2.61
7,CCCn1c(=O)c(C(=O)NNC(=O)c2ccccc2Cl)c(O)c2ccccc21,11.4
8,O=S(=O)(Nc1nccs1)c1ccc2c(c1)OCCO2,3
9,CCN1CCN(C(=O)/C=C/c2ccc(OC)cc2)CC1,5.09
10,Cc1ccc(CNc2oc(-c3ccco3)nc2C#N)cc1,0.865
11,Cc1cccc2sc(N(CCN(C)C)C(=O)C3CCN(S(=O)(=O)c4cccs4)CC3)nc12.Cl,6.37
12,CCN(CC)c1ccc2c(Nc3ccccc3)c(C=O)c(=O)oc2c1,8.76
13,O=C(O)C1CCCCC1C(=O)NCCC(c1ccccc1)c1ccccc1 (stereo not shown),15.4
14,O=C(Nc1ccc(S(=O)(=O)Nc2nccs2)cc1)c1nn(-c2ccc(F)cc2)ccc1=O,14.7
15,CCC(C)NC(=O)c1ccc(C)c(NC(=O)C2=C(C)OCCS2)c1 (stereo not shown),11.3
16,Cc1nnc(Sc2nc3c(c(=O)n(C)c(=O)n3C)n2Cc2ccccc2Cl)s1,9
17,CC(C(O)c1ccc(O)cc1)N1CCC(Cc2ccccc2)CC1.O.O=C(O)C(O)C(O)C(=O)O (stereo not shown),-37.8
18,Cc1ccc(/C=N/NC(=O)C(C)NC(=O)c2ccccc2)cc1 (stereo not shown),14.1
19,O=[N+]([O-])c1c(Nc2ccc(O)cc2)cc(Cl)c2nonc12,5.34
20,CCNc1nc(NC(C)(C)C)nc(SC)n1,9.6
21,COc1cccc(NC(=O)C2CC(=O)N(C)C(=Nc3cccc(F)c3)S2)c1 (stereo not shown),11.8
22,Cc1nn(Cc2ccccc2)c(Cl)c1/C=C/C(=O)OC(C)C(=O)N1CCCC1 (stereo not shown),10.7

row,SMILES,"hERG current change (%, negative = inhibition) at 1uM [%]"
1,CSCCC(NS(=O)(=O)c1ccc2c(c1)oc(=O)n2C)C(=O)NC1CCCc2ccccc21 (stereo not shown),3.7
2,CCOc1cc(S(=O)(=O)NCCN2CCOCC2)c(C)cc1C,16.5
3,Cc1cc(NCc2ccccn2)n2nc(C)c(-c3ccccc3)c2n1,0.203
4,CC1CCCCN1C(=O)c1cccc(NC(=O)c2ccccc2)c1 (stereo not shown),0.66
5,Cc1ccc(/C=N/n2c(C)nnc2C)s1,1.77
6,Cc1cccc(C(C)C)c1NC(=O)COC(=O)Cc1ccsc1,4.93
7,COc1ccc(-c2cc3nc(-c4ccccc4)cc(N4CCC(O)CC4)n3n2)cc1,1.7
8,O=C(CSc1nnnn1-c1ccccc1)N1CCc2ccccc2C1,-12.4
9,CCOc1ccc(NC(=O)c2ccc(OC)cc2)cc1,6.61
10,O=S1(=O)CC/C(=N\O)c2ccccc21,16.6
11,O=C(NCc1ccc2c(c1)OCO2)c1ccc(CN2CCc3ccccc3C2)cc1,6.25
12,O=C(/C=C/c1cccc(F)c1)N1CCN(c2ncccn2)CC1,12.4
13,CC(C)(Cc1ccccc1)/[N+]([O-])=C\c1ccccc1,12.7
14,CCOc1ccccc1N=C1SC(CC(=O)Nc2ccc(OC)cc2OC)C(=O)N1CCC1=CCCCC1 (stereo not shown),-0.403
15,CC1C(=O)C(C)C(c2ccc(Br)cc2)NC1c1ccc(Br)cc1 (stereo not shown),16.7
16,CC(C)C(NC=C1C(=O)OC(C)(C)OC1=O)C(=O)O (stereo not shown),12.2
17,COc1ccc(C(C(=O)NC2CCCCC2)N(C(=O)c2sc(C)nc2C)c2ccc(OC)cc2)cc1 (stereo not shown),17.5
18,COc1ccc(OC)c(C(=O)c2ccc(C(=O)Nc3ccc(NC(C)=O)cc3)cc2)c1,15.6
19,CN(C)C(CNC(=O)Cc1c(Cl)cccc1Cl)c1ccccc1 (stereo not shown),8.65
20,COc1ccccc1/C=C/C1C(C(=O)OCC(C)C)=C(C)N=C2SCCC(=O)N21 (stereo not shown),9.17
21,CCN(CC)S(=O)(=O)c1cc(NC(=O)COC(=O)c2ccc(NC(=O)CC#N)cc2)ccc1C,7.02
22,CCCCCn1c(CCCNC(=O)CC)nc2ccccc21,-52.3

row,SMILES,"hERG current change (%, negative = inhibition) at 1uM [%]"
1,COc1cc(NS(=O)(=O)c2ccc(NC(=O)c3ccc(S(=O)(=O)N4CCCCC4)cc3)cc2)ncn1,19.6
2,COc1ccc(NS(=O)(=O)c2ccc(OC)c(NC(=O)CCC3CCCCC3)c2)cc1,13
3,Cc1nc2oc(C(=O)c3ccc(Br)cc3)c(N)c2c2c1COC(C)(C)C2,18.1
4,COc1ccc(C(=O)Nc2ccc(S(=O)(=O)Nc3nccc(C)n3)cc2)cc1,15.8
5,CS(=O)(=O)Nc1ccc(-c2cn3cccnc3n2)cc1,0.474
6,COc1ccc2nc(C)cc(NCc3cccc(C(F)(F)F)c3)c2c1,5.09
7,Cc1nnc(-c2cnn(-c3ccccc3)c2N)n1Cc1cccc(C(F)(F)F)c1,1.55
8,O=C(CCCCCN1C(=O)CCC1=O)Nc1ncn[nH]1,6.07
9,COc1cccc(Cn2c(Oc3ccccc3)nc3c2c(=O)n(C)c(=O)n3C)c1,9.66
10,O=C1COc2ccc(C(=O)CSc3nc4ccccc4c(=O)n3-c3ccc(Cl)c(Cl)c3)cc2N1,13.3
11,Nc1nnc(SCC(=O)OCC(=O)Nc2ccc(Br)cc2F)s1,12.2
12,CCOC(=O)N1CCN(C(=O)CSCc2ccc(Cl)cc2)CC1,-16.2
13,O=c1oc(Nc2ccccc2F)nc2ccccc12,20.7
14,CN(C)c1ccc(N=Nc2nc3ccccc3n2C)cc1,1.69
15,Br.O=C(CN1CCCCC1)c1cccc(Br)c1,7.08
16,CCN1/C(=N\N)c2cccc3cccc1c23,11.9
17,CSCC[C@H](NC(=O)C1CCN(S(=O)(=O)c2ccc(C)cc2)CC1)C(=O)NCC1CCCO1 (stereo partly shown),-14.1
18,O=C(Nc1nnc(C2CC2)s1)c1cccs1,21.6
19,Cc1cccc(NC(=S)NC2CC3C=CC2C3)c1 (stereo not shown),9.63
20,O=C(O)/C=C/c1cn(-c2ccccc2)nc1-c1ccc(-c2ccc([N+](=O)[O-])cc2)o1,11.4
21,O=C(Cc1ccccc1[N+](=O)[O-])Nc1ccc2c(c1)OCCO2,18.2
22,COc1ccc(NC(=O)COc2ccc(N(C)S(=O)(=O)c3ccc(C)cc3)cc2)cc1,7.31
